From the supplement of paper PMC8728848
Shown is part of a subset that was picked to be rich in the strongest signals.

Test system: Fuc(a1-2)[GalNAc(a1-3)]Gal(b1-3)GlcNAc
Experiment: glycan array binding signal (z-score within array); higher = stronger binding
Settings: glycan notation: IUPAC condensed, linker removed
Summary of the method: (§1)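 Negative Z-scores can be read as non-binding. The Z-score is calculated within each array and then averaged across arrays of one protein sequence at different concentrations or buffers and across linkers. Arrays, 3228 in all, were curated from the Consortium for Functional Glycomics database and kept only where the protein sequence was available.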

Row | Substance | glycan array binding signal (z-score)
1 | Gal 8 long (Homo sapiens) (chain not printed) | 4
2 | M-Ficolin (Homo sapiens) (chain not printed) | -0.209
3 | VWF (Homo sapiens) (chain not printed) | 5.17
4 | Galectin-8 C-terminal CRD (Homo sapiens) (chain not printed) | 6.98

Test system: Fuc(a1-2)[GalNAc(a1-3)]Gal(b1-4)GlcNAc(b1-2)Man(a1-3)[Fuc(a1-2)[GalNAc(a1-3)]Gal(b1-4)GlcNAc(b1-2)Man(a1-6)]Man(b1-4)GlcNAc(b1-4)GlcNAc
Experiment: as above
Settings: glycan notation: IUPAC condensed, linker removed
Summary of the method: as §1

Row | Substance | glycan array binding signal (z-score)
5 | M-Ficolin (Homo sapiens) (chain not printed) | -0.186
6 | Meso764 (Homo sapiens) (chain not printed) | 4.21
7 | M-Ficolin G221F (Homo sapiens) (chain not printed) | -0.176

Test system: Fuc(a1-2)[GalNAc(a1-3)]Gal(b1-4)Glc
Experiment: as above
Settings: glycan notation: IUPAC condensed, linker removed
Summary of the method: as §1

Row | Substance | glycan array binding signal (z-score)
8 | H-Ficolin (Homo sapiens) (chain not printed) | -0.424
9 | VWF (Homo sapiens) (chain not printed) | 6.78
10 | Galectin-8 C-terminal CRD (Homo sapiens) (chain not printed) | 4.29
11 | Thrombomodulin Extracellular (Homo sapiens) (chain not printed) | -0.404

Test system: Fuc(a1-2)[GalNAc(a1-3)]Gal(b1-4)[Fuc(a1-3)]GlcNAc
Experiment: as above
Settings: glycan notation: IUPAC condensed, linker removed
Summary of the method: as §1

Row | Substance | glycan array binding signal (z-score)
12 | Siglec-2 (Homo sapiens) (chain not printed) | 0.034
13 | Serum Amyloid P component (Homo sapiens) (chain not printed) | -0.491
14 | M-Ficolin Y271F (Homo sapiens) (chain not printed) | 0.249
15 | M-Ficolin G221F (Homo sapiens) (chain not printed) | -0.178
